Read counts are not given, so values of variants with three or more changes are uncertain.

To fix the notation:
B1: LINE1-mini (parent)
chain: GGCAGAGCUCAACACAGCGUGGCAAAGUGGCUGUGGCUAGACUGCC

In this data set the parent is B1. Kind of data set: self-cleavage, relative activity (ratio to wild type); higher = more cleavage; in vitro, sequencing; the parent is a self-cleaving ribozyme.
As to GGCAGUGCUCAACACAGGGUGGCAAAGUGGCUGUGGCUAGACUGCU [A6U C18G C46U], the self-cleavage turned out to be 0.8.

Turning to GGCAGGGCACAACACACCGUGGCAAAGUGGAUGUGUCUAGACUGCC [A6G U9A G17C C31A G36U], the self-cleavage is 0.02. In the case of GGCAGUGCUCAACACAGCGUGGAAAAGUUGCUGUGGCUAGACUGCC [A6U C23A G29U] it was 0.26. GGCAGUGCUCAACACAGCGUGGCUAAGCGGCUGUUGCUAGACUGCC [A6U A24U U28C G35U]: the self-cleavage came out at 0.09. In the case of GGCAGUGAUCAGCACAGCAUGGCAAAGUGGCUGUGGCUAGACUGCC [A6U C8A A12G G19A] it was 0.05. As for GGCAGUGCUCGACACAGCGUGACAAAGUGGCUGUGGUUAGACUGCA [A6U A11G G22A C37U C46A], the figure is 0.01; as for GGCAGUGCUCACCAGAGAGUGGCAAAGUGGCAGUGGCUAGACUGCC [A6U A12C C15G C18A U32A], 0.01; as for GGCAGUGCUCUACAGAGCGUGCCAAAGUGGCUGUGGCUAGUCGGCC [A6U A11U C15G G22C A41U U43G], 0.01. In the case of GGCAGUGCUCAACACAGCGUGGCAUAGUGGCUGUGGCUUGACUGAU [A6U A25U A39U C45A C46U] it was 0.64; in that of GGCAGUGCUCAACACGCCGUGGCAAAGUGGGUGUGGCCAGACUGCC [A6U A16G G17C C31G U38C], 0.08. Regarding GGCAGUGCUCAACUUCGCGUGGCAAAGUGGCUGUGGCUAGACUGCC [A6U A14U C15U A16C], the self-cleavage is 0.06. For the variant GGCAGUGCUCAACACGGCGUGGCAAAGUGGCUGUGGCUAGACAGCC [A6U A16G U43A], the self-cleavage is 0.03.

Consider GGCAGUGCUCAAUACAGCGUGGCAAAAUGGCUGUGGCUAGACUGCC [A6U C13U G27A], for which the self-cleavage was found to be 0.26. With GGCAGGGCACAACACAGCGUGGCAAAGUGGCUGGGGCUAGACUGCC [A6G U9A U34G], the self-cleavage is 0.03. As to GGCAGUGCUGAAUACAUCGUGGCAAAGUGGCUGUGGCUAGACUGCC [A6U C10G C13U G17U], the self-cleavage worked out at 0.02. For GGCAGUGUUCAUCACAGCGUGGCAAGGUGGCUGUGGCUAGACCGCC [A6U C8U A12U A26G U43C], the self-cleavage stood at 0. As for GGCAGGGCCCAACACAGCGGGGCAAAGUGGCUGUGGCUAGGCUGCC [A6G U9C U20G A41G], the figure is 0. As for GGCAGUGCUCAACACAGUGUGGCAAAGUGGCUGCGGCUAGACUGCC [A6U C18U U34C], the figure is 0.02. Turning to GGCAGUGCUCAACACAGCGUGGGAAAUUGGCUGUGGCUAGACUGCC [A6U C23G G27U], the self-cleavage was found to be 0.09.

For GGCAGUGCUCAACACAGCGUGGCAUAGUGGCUGUGGCUACACUGUC [A6U A25U G40C C45U], the self-cleavage is 0.08. Regarding GGCAGUGCUCAACACAGCGUGGCAAAGUGGAUUUGGCAAGACUGCC [A6U C31A G33U U38A], the self-cleavage stood at 0.02.

With GGCAGUGCUCAACACAGCGUGGCAAAGUGGCUGUGGCUCGACCGCC [A6U A39C U43C], the self-cleavage was found to be 0.12. As for GGCAGUGCUGAACCCAGCGUGGCAAAGUGGCUGUGGCUUGACUGCC [A6U C10G A14C A39U], the figure is 0.05; as for GGCAGUGCUGAACACAGCGUGGCAAAGUGGCUGUGGCUAGAUUGCC [A6U C10G C42U], 0. In the case of GGCAGUGCUCGACACAGCGUGGCAAAGUGGCUGUGGCUAGACUGCU [A6U A11G C46U], the self-cleavage is 0.03.

In the case of GGCAGUGCUCAACACAGUGGGGCAAAGUGGCUGUGGCUAGACUGCU [A6U C18U U20G C46U], the self-cleavage worked out at 0.11. As for GGCAGUGCUCUACACAGGGUGGCAAAGUGGCUGUGGCUAGACUCCC [A6U A11U C18G G44C], the figure is 0.02; as for GGCAGUGCUCACCUCAACGUGGUAAAGUGGCUGUGGCUAGACUGCC [A6U A12C A14U G17A C23U], 0.03. As for GGCAGUGCUCAACACAGAGUGGCAAAGUGGCUGUGGCUAGACAGCC [A6U C18A U43A], the figure is 0.05; as for GGCAGGGCUCAACACAGCGUGGCAAAGUGGCUGUGGCUACACUGCA [A6G G40C C46A], 0.04; as for GGCAGUGCUCAACGCAGCGUGGCAAAGUGGCUGUGGAUAGACUGCC [A6U A14G C37A], 0.03. As for GGCAGUGCUCAACACAGCGUGGCACAGUGGCUGUGGCUCGACUGCC [A6U A25C A39C], the figure is 0.35; as for GGCAGUGCUCAACGCAGCGUUGCAAAGUGGCUGUGGCUAUAGUGCC [A6U A14G G21U G40U C42G], 0.01.

For the variant GGCAGUGCUCAACACAGCGUGGCAAUGUGGCUGUGGCUACACUGCC [A6U A26U G40C], the self-cleavage is 0.22. For GGCAGUGCUCAACACAGCGUGGCAAAGUGGCUGUGGAUAGACUGAC [A6U C37A C45A], the self-cleavage was found to be 0.01. In the case of GGCAGUGCUCAAGACAGUGUGGCAAAGUGGCUGUGGCUAGACUGCC [A6U C13G C18U] it was 0.05; in that of GGCAGGGCCUAACACAGCGUGGCAAAGUUUCUGUGGCUAGACUGCC [A6G U9C C10U G29U G30U], 0.02; in that of GGCAGUGCUCAACACAGCGUGGCAAGGUGGCUGUGGCUAUACUGCC [A6U A26G G40U], 0.29. For the variant GGCAGUGCUAAACACAGCGUCGCAAAGUGGCUGUGGCUAGACUGCC [A6U C10A G21C], the self-cleavage stood at 0.12. Turning to GGCAGUGCUCAACAUAGCGUGGCAAAAUGGCUGUGGCUAGACAGCC [A6U C15U G27A U43A], the self-cleavage is 0.13.

Regarding GGCAGUGCUCAACCCAGGGUGGCAAAGUGGCUGUGGCUAGACUGCC [A6U A14C C18G], the self-cleavage amounted to 0.11.

As for GGCAGUGCUGAAUACAGCGUGGCAAAUUGGCUGUGGCUAGACUGCU [A6U C10G C13U G27U C46U], the self-cleavage was determined as 0.01. For GGCAGUGCUCAAAACAGCGUGCCAAAGUGGAUGUGGCUAGACUGCU [A6U C13A G22C C31A C46U], the self-cleavage was 0.13. As for GGCAGUCCUCAAAACAGCGUGGCAAAGUUGCCGUGGCUAGACUGCC [A6U G7C C13A G29U U32C], the figure is 0.06. With GGCAGGGCUCAACACAGCGUGGCAAAGUGGCUGUGGCUAGACUACU [A6G G44A C46U], the self-cleavage is 0.12. In the case of GGCAGUGCUCAACGCAGCGUUGCAAAGUGGCUGUGGCUAGACUGCC [A6U A14G G21U] it was 0.16; in that of GGCAGGGCCUACAACAUCGUGGCAAUGUGGCUGUGGCUAGACUGCC [A6G U9C C10U A12C C13A G17U A26U], 0.01; in that of GGCAGGGCACAACACAGCGUGGCAAAGUGCCUGUGGCUAGACUGCC [A6G U9A G30C], 0.04. Consider GGCAGUGCUCAACACGGCUUGUCAAAGUGGCAAUGGCUAGACUGCC [A6U A16G G19U G22U U32A G33A], for which the self-cleavage was 0.01.

As for GGCAGUGCUCAACACAGCGUGGUAAAGUGUCUGUGGCUAGACUGCC [A6U C23U G30U], the self-cleavage amounted to 0.11. In the case of GGCAGUGCUCAAUACACAGUGGUAAAGUGGCUGUGGCUAGACUACA [A6U C13U G17C C18A C23U G44A C46A] it was 0.02; in that of GGCAGUGCUCAACACAGCGUGGCAAAGUGGGUUUGGCUAGACAGUC [A6U C31G G33U U43A C45U], 0.12; in that of GGCAGUGCUAAACACAGCGUGGUAAAGUGGCUGUGGCUAGACUGCC [A6U C10A C23U], 0.03.

Take GGCAGUGGUCAACACAGCGUGGCUAAGUGGCUGUGGCUAGACUGCC [A6U C8G A24U]: the self-cleavage is 0.12.

With GGCAGUGCUCAACUCAGCGUGGCGAAGUGGCUGUGGCUAGACUUCC [A6U A14U A24G G44U], the self-cleavage was 0.03. As for GGCAGUGCUCGACACAGCGUGGCAAAGUGGCUGUGGCGAGACUGCC [A6U A11G U38G], the figure is 0.01.

The record behind these values is the RNAGym collection of RNA variant scans (doi:10.7554/elife.90254).
